This is one part of the list. Values were computed here from the reads of four pooled replicates and scatter widely.
What follows are sequences tested against T1, Pho4 (S. cerevisiae) (UniProt P07270) (assay: relative binding free energy (BET-seq); higher = weaker binding). Settings: reference: library average.
T1 sequence: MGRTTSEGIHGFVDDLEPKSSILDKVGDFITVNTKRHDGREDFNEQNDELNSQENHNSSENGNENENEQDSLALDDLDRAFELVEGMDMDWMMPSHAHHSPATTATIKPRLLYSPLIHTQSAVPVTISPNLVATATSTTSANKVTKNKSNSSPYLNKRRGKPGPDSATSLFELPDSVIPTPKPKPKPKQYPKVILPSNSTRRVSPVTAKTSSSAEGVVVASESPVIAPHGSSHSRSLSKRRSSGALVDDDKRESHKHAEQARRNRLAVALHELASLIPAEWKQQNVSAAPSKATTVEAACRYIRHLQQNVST

| Sequence | relative binding free energy [kcal/mol] |
| --- | --- |
| AGGGACACGTGCGGGG | 0.03 |
| GATGGCACGTGCGAGT | 0 |
| TTCGGCACGTGGGTGC | -0.13 |
| GGGGTCACGTGGATTT | 0.31 |
| TGCTGCACGTGAGTTA | 0.18 |
| GGCCGCACGTGAGTGG | -0.01 |
| AATGACACGTGGTAGA | 0.05 |
| CTGGTCACGTGCTAGG | 0.11 |
| TACTGCACGTGTATGT | -0.02 |
| TCATTCACGTGTGCTG | 0.31 |
| ACGATCACGTGGTTTG | 0.04 |
| CGTATCACGTGGGAAG | 0 |
| CGTGTCACGTGTCAGT | 0.05 |
| TTAATCACGTGTGGTG | 0.13 |
| CGATTCACGTGAGGGT | 0.34 |
| TGGGACACGTGGAGAT | -0.08 |
| GGGTTCACGTGAGTTC | 0.42 |
| AATGACACGTGTTTGA | 0.06 |
| GCAGTCACGTGTGTTG | 0.22 |
| CGGAGCACGTGCTGTT | 0.05 |
| CGGCGCACGTGAGTGG | 0.02 |
| CAAGACACGTGGGGTA | -0.07 |
| TGTGTCACGTGGGAGG | 0.01 |
| GTTTGCACGTGCTTCT | 0.13 |
| CTTTGCACGTGGTTGT | -0.06 |

| Sequence | relative binding free energy [kcal/mol] |
| --- | --- |
| CTATTCACGTGAAGTG | 0.26 |
| GTTGGCACGTGTACTG | -0.04 |
| GGGGTCACGTGGAGTA | 0.15 |
| TATTTCACGTGAGATA | 0.39 |
| GGTTGCACGTGCGGTG | 0.08 |
| TATAGCACGTGGTCAG | -0.17 |
| AGAATCACGTGGGGCG | 0.1 |
| ACGATCACGTGTGTTT | 0.17 |
| GCGTTCACGTGATAGT | 0.3 |
| AGTTACACGTGTGGCA | 0.11 |
| GATTGCACGTGTACTG | 0.18 |
| TTAACCACGTGTAGTG | -0.05 |
| GTATGCACGTGACTGG | 0.05 |
| TGGTGCACGTGAGGCG | 0.27 |
| AGGTGCACGTGAGGTA | 0.11 |
| TGGTACACGTGGAGCT | 0.05 |
| TTGCACACGTGTCGTT | 0.03 |
| AGGGGCACGTGGATCG | -0.15 |
| GATGTCACGTGCCGGG | 0.13 |
| TTTACCACGTGGTTGT | -0.09 |
| ATATTCACGTGTGTAG | 0.08 |
| TATTACACGTGGTCTT | -0.01 |
| TGGTACACGTGCGGAG | -0.02 |
| ACTTTCACGTGTATTG | 0.11 |
| AGATTCACGTGGGTAG | 0.05 |

| Sequence | relative binding free energy [kcal/mol] |
| --- | --- |
| GTGCGCACGTGAGCGT | 0.03 |
| GTTAGCACGTGCGTTT | -0.08 |
| AGTTCCACGTGGGTTG | 0 |
| GGGTGCACGTGCATAA | 0.04 |
| GTTTTCACGTGGTCCT | 0.36 |
| GAAGTCACGTGTTGTA | 0.25 |
| ATACGCACGTGAGGAG | 0.2 |
| GTGTGCACGTGTGGTC | 0.06 |
| CTTGGCACGTGCATGG | -0.16 |
| TTTGGCACGTGCAGGT | -0.1 |
| AGAGTCACGTGTTTTA | 0.11 |
| TATAACACGTGTTATT | -0.05 |
| GAGGGCACGTGGTATG | -0.16 |
| CTAAGCACGTGGTGTT | -0.19 |
| TTAATCACGTGCGTCG | 0.18 |
| TTTTACACGTGTAGTC | 0.05 |
| ATTCACACGTGGGTGT | -0.09 |
| GAGGGCACGTGTCTGG | -0.07 |
| ATTTGCACGTGCGGTG | -0.02 |
| GCTTGCACGTGGTATG | -0.06 |
| AGTTTCACGTGAAGTA | 0.4 |
| TTCTACACGTGTGCTG | 0.13 |
| CATTGCACGTGAAGTT | 0.15 |
| CGGATCACGTGCGGTG | 0.16 |
| TGGTGCACGTGCCGGT | -0.13 |

| Sequence | relative binding free energy [kcal/mol] |
| --- | --- |
| AGTAGCACGTGGGTTG | -0.29 |
| ATTAGCACGTGTGTCA | -0.01 |
| AGGAACACGTGTGGTT | 0.19 |
| GGAGGCACGTGAAGGA | 0.28 |
| ATGGCCACGTGGATGT | 0.08 |
| CTATTCACGTGGGTTA | -0.11 |
| ATTGCCACGTGTGCTT | -0.03 |
| TAATACACGTGAGTTG | 0.3 |
| GCATGCACGTGGAGGG | 0.04 |
| GTTTCCACGTGAGTGG | 0.19 |
| CGTTACACGTGAGAGT | 0.25 |
| CGGTTCACGTGTTTCA | 0.32 |
| CTTGACACGTGTGATG | 0.04 |
| GAGGGCACGTGGGACA | -0.18 |
| CGGTACACGTGCGTGG | 0.08 |
| CTAGGCACGTGTGATG | -0.04 |
| TAATGCACGTGGGACG | -0.13 |
| TTTCTCACGTGATGAG | 0.27 |
| GTTCGCACGTGGGGCA | -0.18 |
| AGAAGCACGTGAAAGG | 0.34 |
| ACTTTCACGTGTGTTG | 0.2 |
| AAGTTCACGTGGGAAG | 0.02 |
| GTGGACACGTGTGAGC | 0.01 |
| TTGCGCACGTGACGGG | -0.04 |
| CAGTTCACGTGAAGTG | 0.47 |

| Sequence | relative binding free energy [kcal/mol] |
| --- | --- |
| AAGTGCACGTGGTGAA | -0.28 |
| ATTGCCACGTGGAGTG | -0.17 |
| TTGGACACGTGCAAGT | 0.23 |
| TTGGGCACGTGGGGGA | -0.14 |
| AATGGCACGTGGCGTT | -0.2 |
| GTGATCACGTGTTCGT | 0.1 |
| AGCTGCACGTGGTCGG | -0.15 |
| GATTTCACGTGCTTGA | 0.33 |
| TCGGGCACGTGGGATA | -0.05 |
| TATGTCACGTGCGTTG | 0.06 |
| CTTGACACGTGTTTTT | -0.08 |
| AGGTGCACGTGTGTGA | 0.03 |
| AGAGTCACGTGGTGAA | 0.15 |
| AGCATCACGTGGTGAG | 0.19 |
| TGTTTCACGTGCCTTT | 0.17 |
| GGTTTCACGTGGAACG | 0.26 |
| TTTTACACGTGCAGGG | -0.01 |
| GCTTTCACGTGAAGGG | 0.55 |
| GTGCGCACGTGCGTTT | -0.16 |
| GGGTTCACGTGCTGAT | 0.42 |
| GTATACACGTGTGTAA | 0.1 |
| TTTTTCACGTGGAGTC | 0.15 |
| AGGGTCACGTGTAAAT | 0.24 |
| TGAGGCACGTGTTAGT | -0.12 |
| TATTTCACGTGACGAT | 0.33 |

| Sequence | relative binding free energy [kcal/mol] |
| --- | --- |
| AGTGGCACGTGCCGTT | -0.17 |
| TGATGCACGTGGGTTT | -0.04 |
| TTGGCCACGTGAGATG | 0.23 |
| TGAGGCACGTGTTCAG | -0.12 |
| TAAGTCACGTGGGGAC | 0.06 |
| ATAAACACGTGTTGGT | -0.09 |
| AATTACACGTGAGGTT | 0.36 |
| CGAGCCACGTGGGGTG | -0.21 |
| GCTGTCACGTGTTTGA | 0.08 |
| AGGTGCACGTGTAAAT | -0.03 |
| TGGGTCACGTGATGAA | 0.36 |
| AAGTTCACGTGGGTGT | 0.14 |
| GGGTACACGTGTTTAT | 0.05 |
| TGTGGCACGTGTCCTT | -0.03 |
| AAGTACACGTGGTGTC | 0.05 |
| GTGCACACGTGGTAAG | 0.06 |
| TGATGCACGTGCGAAG | 0.05 |
| GTGTTCACGTGAAAGT | 0.39 |
| AAGTGCACGTGGTGGT | 0 |
| TCCGTCACGTGTGTGA | 0.1 |
| TGATTCACGTGGCTGG | 0.3 |

— the BET-seq Pho4 binding data (Le et al. 2018)
